Drawing on paper PMC12136788, this text covers binding signal for 22 molecules.

This is one part of the list.

The chains are these.
B1: ENSG00000070961:be:win_201|CDS|ENSG00000070961|bound_else_gene|NA|bound_elsewhere_windowed (ssRNA)
RNA: GGGAGUUCUACAGUCCGACGAUCCAAUGAAGGUUUAAGUGGAAACCCUGCAGAUUUAGAAAGAAGAGAAGCAGUGUUUGGAAAGAAUUUUAUACCUCCUAAAAAGCCAAAAACCUUUCUUCAAUUAGUAUGGGAAGCAUUACACAACAGAGGAUUGAGCAUCA
B2: ENSG00000164951:stop:overlap|stop_codon|ENSG00000164951|stop_codon|NA|stop_codon (ssRNA)
RNA: GGGAGUUCUACAGUCCGACGAUCUUACAAUCAUUGUAGUUCAGUUCAAUUCUCAUGUUGUAGGGGCGUAUCAAAACCAAGAAUAGUGAGUGGCUCUUUCACUGGCAAUUCUCAAAUGAUAUACAUUUAAAGGGCAGAUUUUUUCAACAGAGGAUUGAGCAUCA
B3: chr21:25881503:25881610:-|3pUTR|ENSG00000142192|msi1_unk|FALSE|overlapping (ssRNA)
RNA: GGGAGUUCUACAGUCCGACGAUCACAAACCCGUUUUAUGAUUUACUCAUUAUCGCCUUUUGACAGCUGUGCUGUAACACAAGUAGAUGCCUGAACUUGAAUUAAUCCACACAUCAGUAAUGUAUUCUAUCUCUCUUUACAUUUCAACAGAGGAUUGAGCAUCA
B4: ENSG00000107863:be:win_4051|CDS|ENSG00000107863|bound_else_gene|NA|bound_elsewhere_windowed (ssRNA)
RNA: GGGAGUUCUACAGUCCGACGAUCGUGCAGGAGGAAAGCACAGUAGACUCCCAGCCAGUGCCAAACAUAGAUCAUUUACUCACCAACAUUGGAAGGACAGGAGUCUCCCCAGGAGAUGUAUCAGAUUCAGCUACUAGUGACUCACAACAGAGGAUUGAGCAUCA
B5: ENSG00000070961:be:win_1351|CDS|ENSG00000070961|bound_else_gene|NA|bound_elsewhere_windowed (ssRNA)
RNA: GGGAGUUCUACAGUCCGACGAUCAUGAAAGAUAAUAACUUAGUAAGGCAUCUGGAUGCUUGUGAAACCAUGGGAAAUGCUACAGCUAUUUGUUCAGAUAAAACAGGAACUUUGACAAUGAACAGAAUGACAGUCGUUCAAGCUCAACAGAGGAUUGAGCAUCA
B6: chr9:128729785:128731336:-|three_prime_utr|ENSG00000160445|control|control|control (ssRNA)
RNA: GGGAGUUCUACAGUCCGACGAUCCUCCCACGGAGUGAAGAGACAUGGGGGACUUUUGCACAACCGACGCUUUUCCUUAAUGUUAGUGAGAUAUAUAUAUAUUAUAUAUAUAUAUUUUUUUUUUGGUUAGGAAGUGUGAAGUUUCAACAGAGGAUUGAGCAUCA
B7: chr1:226361101:226361261:-|3pUTR|ENSG00000143799|msi1|total|mutant (ssRNA)
RNA: GGGAGUUCUACAGUCCGACGAUCUUUCUUGCCAGGCCGAUAAAACUGACACCGAGAAAAGGCUGGAGAGAGAUUCUGUUGCACCGACCCGUCCUAUGGAAAAAACCAAGCUUCGUCCGAAUGUCUGCCUUACUGGUUUCCCCACAACAGAGGAUUGAGCAUCA
B8: ENSG00000123983:stop:overlap|stop_codon|ENSG00000123983|stop_codon|NA|stop_codon (ssRNA)
RNA: GGGAGUUCUACAGUCCGACGAUCGUGAUGCCAGACGUUUUUUUGGGUGUGGGACUACAAUACUGGCAGAGUGGGAGCACCAUUAGUUUGCUGUGAAAUCAAAUUAAAAAACUGGGAGGAAGGUGGAUACUUUAAUACUGAUAACAACAGAGGAUUGAGCAUCA
B9: chr11:62752106:62752207:-|CDS|ENSG00000185670|msi1|FALSE|unique (ssRNA)
RNA: GGGAGUUCUACAGUCCGACGAUCGGCUCACAAUGAGGACCUGGCCAAACGCAGCAAACCAGAUCCAGAAGUGGGACCCCUUCUAGGGGUGCAGCCUCUCCCUGGCUCCCCAACAGCAGACAGACAGAGCAGCAGUGGUGGAGGCAACAGAGGAUUGAGCAUCA
B10: ENSG00000198589:be:win_3151|CDS|ENSG00000198589|bound_else_gene|NA|bound_elsewhere_windowed (ssRNA)
RNA: GGGAGUUCUACAGUCCGACGAUCUCUUCUGACAUAAUAGAAGCUGUGGCUAUUUCCUCUAAUUCUUUUAUAACAACUGGCAAAGAUUCAAUGACUGUCAGUGAAGUAACUGCUUCUAUAAGUUCUCCUUCAGAAGAGGAUGCCCAACAGAGGAUUGAGCAUCA
B11: chr11:61799969:61800070:-|3pUTR|ENSG00000149485|msi1|total|mutant (ssRNA)
RNA: GGGAGUUCUACAGUCCGACGAUCUUCUUUGCCACCUUUUGGGUGUGGUGUCACCAGCCUGUUCCGCCAAGCCGCUUUGGGCACCGGCUGCCCAAUCUGAGCAAACACCAGUGAGGCUCUAUUGAGCCAAGACCAAGUCCUCAACAACAGAGGAUUGAGCAUCA
B12: chr6:57184343:57184440:+|3pUTR|ENSG00000112208|msi1_unk|total|mutant (ssRNA)
RNA: GGGAGUUCUACAGUCCGACGAUCUCUUCAGUUUUGUGAAUAACAAAACCCGCAAUAUUUUAAUUAUCUAUCCCGAGAUUUUUCCGAUUGAAUUCUUGUCUUGUACCCGGAUCCCGCAUAUUUCACUAUUCUGUGGAUGAAUACCAACAGAGGAUUGAGCAUCA
B13: chr12:29502561:29502662:-|3pUTR|ENSG00000133687|msi1|FALSE|unique (ssRNA)
RNA: GGGAGUUCUACAGUCCGACGAUCUCUUAACAAUGAUGUAUGGCACAAUUGGUUGGUUGAGGCUAUCAUUCCAUGAUUACAAAUAGGUGGUUAUGUGGGGUGGUUUUGCACUUGUGGCAAUUGGACUGCAAUUUGGCCUUAAAACAACAGAGGAUUGAGCAUCA
B14: chr19:42216679:42217007:-|CDS|ENSG00000160570|control|control|control (ssRNA)
RNA: GGGAGUUCUACAGUCCGACGAUCCUUUCUGCUGGAUGAGGCUCCUGGCGCCGCCGGAGGCUUAGCCCGGGCCCGCAGCGGCCUAGAGCUCCUGCUGGAGCUGGAGCGCCGCGGGCAGUGCGACGAGAGCAACCUGCGGCUGCUCAACAGAGGAUUGAGCAUCA
B15: chr10:103289619:103289731:+|3pUTR|ENSG00000148798|unk|FALSE|unique (ssRNA)
RNA: GGGAGUUCUACAGUCCGACGAUCAUGAGUGGAAAAAGCCAAGGUGUCAUUUAUGUGUCAGUUCAUUUGUGGUGAUAUAGAAUUAGCUUUUUCAUCCCCUUACCCUUAGAAUCCACGUAUUCCCCUUCCCACUAGCCUAGGUCACAACAGAGGAUUGAGCAUCA
B16: chr12:57478539:57478757:-|CDS|ENSG00000123329|control|control|control (ssRNA)
RNA: GGGAGUUCUACAGUCCGACGAUCCUCCCAAGCAGGGCUCAGGCUAGCUCGGAGCAGCCUCCUCCACUUCCCCGCAAAAUGUGUAGGAGCGUCAGCACUGACAAUCUGAGCCCCAGCCUUCUGAAGCCUUUCCAGGAAGGACCACAACAGAGGAUUGAGCAUCA
B17: chrX:152750421:152751363:-|CDS|ENSG00000268606|control|control|control (ssRNA)
RNA: GGGAGUUCUACAGUCCGACGAUCCGACAAUCAGGUCAUGCCCAAGACAGGCCUCCUGAUAAUCGUCCUGGCCAUAAUCGCAAUAGAGGGCGACUGUGCCCCUGAGGAGAAAAUCUGGGAGGAGCUGAGUAUGUUGGAGGUGUUCAACAGAGGAUUGAGCAUCA
B18: ENSG00000070961:be:win_3151|CDS|ENSG00000070961|bound_else_gene|NA|bound_elsewhere_windowed (ssRNA)
RNA: GGGAGUUCUACAGUCCGACGAUCACAUUACUCUGGGGCCAGCUUAUUUCAACAAUUCCAACUAGCCGUUUAAAAUUCCUCAAAGAAGCUGGUCAUGGAACACAAAAGGAAGAAAUACCUGAGGAGGAAUUAGCAGAGGAUGUUCAACAGAGGAUUGAGCAUCA
B19: chr17:10306458:10306629:-|CDS|ENSG00000006788|control|control|control (ssRNA)
RNA: GGGAGUUCUACAGUCCGACGAUCCCACCUGGAGCGGAUGAAGAAGAACCUGGAGCAGACGGUGAAGGACCUGCAGCACCGUCUAGAUGAGGCUGAACAACUGGCGCUGAAGGGCGGGAAGAAGCAGAUCCAGAAACUGGAGAACAACAGAGGAUUGAGCAUCA
B20: chr2:227551976:227552087:+|CDS|ENSG00000173744|unk|total|mutant (ssRNA)
RNA: GGGAGUUCUACAGUCCGACGAUCUCCAUGAGCAUGCCCACAGGAUUCGGCACUCCUGCUCCCUACAGUCUUCCCACCAGCUUCCGUGGCAGCUUUCAGCAGCCUGCCUUUCCAGCCCAAGCAGCUUUCCCUCAACAGACAGCUCAACAGAGGAUUGAGCAUCA
B21: chr15:42211119:42211220:-|3pUTR|ENSG00000103978|unk|FALSE|unique (ssRNA)
RNA: GGGAGUUCUACAGUCCGACGAUCAGGUUACAUCUUGCAGAGGUUGUUUUGAGAAAAAAGGGCCCUUCUGAGUUAAGGAGCCAUAGUUCUAUCAAUGAUCAAAAGAAAAAAAAAAAAAGAGAAACUGUUACAGUAUGAUUCAGACAACAGAGGAUUGAGCAUCA
B22: chr17:41167230:41167584:-|three_prime_utr|ENSG00000196156|control|control|control (ssRNA)
RNA: GGGAGUUCUACAGUCCGACGAUCAUGUGGACUUCCUGAUGUCGUGAAAACAGAGGCAUGGACUGAUUUGGAAAAUAUUUUAUUAGUAUGUAUUCUCUUUUAUAGAAGUUUUUAUUCCUAUUGAAUCUGAAUUUACAGUCAAAUCAACAGAGGAUUGAGCAUCA

The test addresses MSI1 full-length (mouse, UniProt Q61474 1-362). Kind of test: nsRBNS (natural sequence RNA bind-n-seq); RBNS binding buffer (assumed for nsRBNS): 25 mM Tris pH 7.5, 150 mM KCl, 3 mM MgCl2, 0.01% Triton X-100, 500 ug/ml BSA, 20 U/ml SUPERase-In, 4 C; UNK is unkempt and MSI1 is Musashi-1; names of the RNAs are library labels; protein concentration not given here; high values mean tight binding.
Chain of UniProt Q61474 (Q61474 whole entry): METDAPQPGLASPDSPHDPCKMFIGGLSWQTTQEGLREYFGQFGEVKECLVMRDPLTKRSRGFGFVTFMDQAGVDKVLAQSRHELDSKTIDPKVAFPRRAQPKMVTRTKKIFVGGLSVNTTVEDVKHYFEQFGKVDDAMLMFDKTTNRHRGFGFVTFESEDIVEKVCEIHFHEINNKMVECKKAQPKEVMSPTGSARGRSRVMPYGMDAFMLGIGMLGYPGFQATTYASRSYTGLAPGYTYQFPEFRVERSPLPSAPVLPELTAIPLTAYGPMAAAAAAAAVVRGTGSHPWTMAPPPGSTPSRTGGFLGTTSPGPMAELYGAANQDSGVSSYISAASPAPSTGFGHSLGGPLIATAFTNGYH
Take B1: the binding signal was 3.64 enrichment R. B2 registered a binding signal of 0.635 enrichment R. The result for B3 reads 0.949 enrichment R. Then B4, with 1.93 enrichment R; and B5, with 0.551 enrichment R.

On to B6, for which the binding signal stood at 2.35 enrichment R.

Molecule B7 returned a binding signal of 0.355 enrichment R. As to B8, the binding signal was 1.68 enrichment R. Then B9, with 0.525 enrichment R; and B10, with 0.411 enrichment R; and B11, with 0.369 enrichment R. Then B12, with 0.54 enrichment R. The result for B13 reads 0.41 enrichment R. In the case of B14, the binding signal was 0.233 enrichment R.

Consider B15, for which the binding signal is 4.28 enrichment R. Then B16, with 0.402 enrichment R; and B17, with 0.462 enrichment R; and B18, with 0.641 enrichment R. The result for B19 reads 0.485 enrichment R; that for B20, 0.733 enrichment R.

In turn, B21 had a binding signal of 0.66 enrichment R. Then B22, with 7.66 enrichment R.
